Experimental data taken from the supplement of paper PMC3334620.
In all, about 33,000 sequences were measured (“E-score (-0.5 to 0.5)”: median about -0.036, highest 2% from about 0.37 on). Some of the results follow.

Molecular target: T1, Yer064c (UniProt P40041)
T1 sequence: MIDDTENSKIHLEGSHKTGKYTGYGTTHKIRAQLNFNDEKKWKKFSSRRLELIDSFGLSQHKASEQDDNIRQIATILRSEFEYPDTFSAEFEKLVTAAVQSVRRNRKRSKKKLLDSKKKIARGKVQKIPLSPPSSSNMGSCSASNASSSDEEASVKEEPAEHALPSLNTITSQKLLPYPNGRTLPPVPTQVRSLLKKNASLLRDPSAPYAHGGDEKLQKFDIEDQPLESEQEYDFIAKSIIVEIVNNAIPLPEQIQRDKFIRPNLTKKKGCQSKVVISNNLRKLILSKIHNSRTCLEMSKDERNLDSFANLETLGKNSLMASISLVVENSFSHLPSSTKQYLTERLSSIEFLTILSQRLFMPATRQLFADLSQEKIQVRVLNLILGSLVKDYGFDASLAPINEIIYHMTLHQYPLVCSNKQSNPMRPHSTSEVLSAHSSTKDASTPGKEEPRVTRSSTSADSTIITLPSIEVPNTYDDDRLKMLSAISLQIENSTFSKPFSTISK
Assay: PBM E-score (8-mer binding enrichment) (E-score (-0.5 to 0.5)); higher = stronger / more preferred TF binding; most listed sequences are background and not binding sites
Conditions: protein concentration: 200 nM; construct: GST-full length
Description: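 Universal 'all 10-mer' protein binding microarrays (Agilent AMADID 015681) probed with GST-tagged S. cerevisiae TFs (full-length or DBD) made by in vitro transcription/translation (PURExpress), about 100-200 nM. Bound TF was detected with fluorescent anti-GST. Each ungapped 8-mer (which stands for itself and its reverse complement) is scored by the PBM enrichment score (E-score), a modified Wilcoxon-Mann-Whitney statistic from -0.5 to +0.5, computed with the Universal PBM Analysis Suite. Scale: above 0.35 generally sequence-specific binding.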

Row | Sequence | PBM E-score
1 | CTCTTGAC | 0.143
2 | AACGGGTC | -0.197
3 | AGCAAGAT | 0.0139
4 | AAGAGGCC | -0.198
5 | AGCGCCCT | -0.113
6 | GTTCGTGA | -0.108
7 | AGTACGTA | 0.129
8 | CAAAGTGG | 0.0067
9 | GACCGACC | -0.17
10 | GTGACCGA | -0.162
11 | GGTAGACC | -0.168
12 | ACGAAGCG | -0.0977
13 | CTTGCGCC | -0.262
14 | CAGGTCCA | -0.00679
15 | ATCGACGA | 0.208
16 | CCGACTAC | 0.325
17 | CACCACTG | -0.229
18 | CTAGTGAA | -0.0375
19 | ATCCCCAC | -0.165
20 | ACCCAAAC | 0.0204
21 | CCAGGGAC | -0.156
22 | ATGTCTTC | -0.0616
23 | GCTGATGA | 0.268
24 | GCCATTCA | -0.0419
25 | AGCTGCGA | 0.0974

Row | Sequence | PBM E-score
26 | ATTAAGGA | 0.176
27 | ATTCTTTG | 0.14
28 | CTCTAATC | 0.155
29 | CACGAGTC | 0.39
30 | GACCGGAC | 0.116
31 | CAGCGGAG | -0.219
32 | ACCTTCGC | -0.145
33 | CAACAGCA | -0.0811
34 | ATATTGAA | 0.227
35 | AATCATAG | 0.433
36 | CAAACGAG | 0.0751
37 | CAGAACAC | -0.122
38 | GCGCTAGA | -0.0786
39 | TAACTCTA | -0.17
40 | TCGCTAGA | 0.117
41 | TGGCTTAA | 0.123
42 | AAGGTTCA | -0.0459
43 | AGCACAGC | -0.0102
44 | AAGAGTAT | 0.111
45 | AGGCCGAC | -0.177
46 | TTGGCCAA | -0.142
47 | CAAATCCC | -0.155
48 | CATATCCA | -0.244
49 | CACAAGAC | 0.101
50 | AACAGGCT | -0.0957

Row | Sequence | PBM E-score
51 | CTGTCCGA | -0.0708
52 | ATGGATCA | 0.186
53 | CCTGTGGC | -0.19
54 | AAGCCTGG | -0.155
55 | AGTTTTAA | 0.0974
56 | AGGCTACG | -0.232
57 | GCGCGAAA | -0.00022
58 | ACCGAACG | -0.00508
59 | GCTCGGAA | -0.085
60 | GCTCCCTA | -0.225
61 | CCTAAACG | -0.103
62 | GTAAAAAC | -0.0718
63 | AGCTGTGG | -0.274
64 | CTGTTTGA | 0.176
65 | CGCTGTTC | -0.0614
66 | GACTTCGC | 0.342
67 | AGTCCCTG | 0.0758
68 | CCCTAGAC | -0.042
69 | AATGTAGG | -0.361
70 | CTAATCCA | -0.121
71 | CAGAACCG | -0.104
72 | GAACTATC | -0.0607
73 | TAGCCCAA | -0.0904
74 | CAACAAAC | -0.0194
75 | GTGCACAC | -0.0262

Row | Sequence | PBM E-score
76 | ACACTCTG | -0.0556
77 | ATAGCGCG | -0.177
78 | CCGCCACC | -0.187
79 | ACTCTGCG | 0.204
80 | GCTTCTCC | -0.287
81 | TTCGCCAA | 0.00308
82 | CTGGTACC | -0.164
83 | CGTCAATA | -0.192
84 | ATGCGGAC | -0.125
85 | CATCGGCG | -0.0687
86 | ACAGTGAC | 0.315
87 | GGTACCAC | -0.11
88 | ATTTGGCG | -0.116
89 | AGACTCGA | 0.292
90 | ATAGTACC | -0.0556
91 | CTCTGGAC | 0.0121
92 | CTCGGCTA | -0.137
93 | GCATAAGA | 0.0166
94 | AATACCAC | -0.172
95 | ATTGCCAG | -0.0482
96 | AAGTCAGC | 0.422
97 | AGCACTGC | -0.184
98 | AAATTTTG | -0.0478
99 | ACTGTCCT | 0.168
100 | AATTTCGG | -0.202

Row | Sequence | PBM E-score
101 | GGTTAGTA | 0.124
102 | AAAAGTAC | 0.0119
103 | ACCCCTTG | -0.213
104 | ACTAGTTC | 0.167
105 | ATGTTACA | -0.0164
106 | CCAGATTA | 0.0415
107 | ATATACAG | -0.00932
108 | CACTGTTC | -0.0848
109 | TAAGTTCA | 0.0693
110 | CTAGCAGC | -0.117
111 | GCGAACGC | -0.058
112 | CAGCTTGC | -0.25
113 | GCAGTCTA | 0.132
114 | GCATCGTA | -0.187
115 | AGTTCGGG | -0.0826
116 | CGCAGTAA | -0.0527
117 | GCAGCTAA | -0.15
118 | GAAATTAC | 0.0771
119 | ATCTGCAG | 0.0941
120 | CGCGACCG | -0.0473
121 | GAGAGCGC | -0.354
122 | ACGCCTAT | -0.228
123 | TCGACTCA | 0.435
124 | CAAGCCGG | -0.108
125 | AAGCTTTC | -0.139

Row | Sequence | PBM E-score
126 | ATTTCCTA | 0.128
127 | TCAGCAAA | 0.0671
128 | ATCCGTCA | -0.0657
129 | AAGTTTCT | 0.0369
130 | ACGGGCGG | -0.296
131 | AGCATCGG | -0.204
132 | GGTTTCCA | -0.211
133 | CGTTAGCA | 0.0131
134 | GACGAAAA | 0.0804
135 | AGGATCTG | -0.126
136 | CTTAGCCC | -0.0619
137 | AGCCGGCT | -0.331
138 | ACTGCTAC | 0.0279
139 | AGTTAGTA | 0.196
140 | GTTGTTAA | -0.0114
141 | GCTATAAA | -0.0214
142 | CTTAGCAC | 0.032
143 | CCTGAATC | 0.297
144 | TATGGAGA | -0.131
145 | AGGTACCT | -0.0896
146 | CGTTCGTA | -0.0921
147 | ACGTACCG | -0.0721
148 | GAATGATC | 0.0514
149 | CGTAAGAG | 0.144
150 | ACCATACA | -0.0449

Row | Sequence | PBM E-score
151 | GCTAAGAA | -0.0294
152 | AACCTACG | -0.26
153 | CAATATGG | 0.0763
154 | CTCGACAA | -0.101
155 | GTTTTGGA | 0.197
156 | ACCCGTGG | -0.162
157 | ATCGATAA | -0.016
158 | ATAGATGA | 0.279
159 | ATCCTTAC | -0.0116
160 | CAGAGCCA | 0.00676
161 | AGGCTTTA | -0.0519
162 | CGGGCAAA | -0.112
163 | ACACGGAA | 0.105
164 | ATAAATAA | 0.133
165 | CAATGGAA | 0.00249
166 | GTGAGCCA | 0.344
167 | ATAAGTAA | 0.196
168 | CCTCTTCA | -0.213
169 | CTTTACTA | 0.12
170 | CCGTGAAA | -0.0073
171 | CGGGATCC | -0.206
172 | ACGGTTTG | -0.119
